# Source: PubChem BioAssay (NCATS)
# The shares of active, inactive and inconclusive entries below differ from those in the screen. Potencies beside an inconclusive call are fits to weak or partial responses and may not hold up. Active and inactive are the calls of the source. Calls come from the whole dose curve; as a rule, active = well fitted curve in the direction sought with a large enough effect; inconclusive = small, poorly fitted or top-dose-only effect, or another doubt; inactive = no such curve, though single readings can be large; an effect the other way counts as inactive or inconclusive.
# Key:
# [1] = qHTS of pediatric cancer cell lines to identify multiple opportunities for drug repurposing: Primary screen for DAOY cells (AID 1347090); conditions: DAOY medulloblastoma viability, CellTiter-Glo luminescence, 48 h; activity change, negative = cytotoxic: at 46 µM (top of the series) unless noted; note: nearly all actives have a fitted effect of over 55% in size;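 for activity change, negative = cytotoxic: plate controls were DMSO for no effect and bortezomib for full effect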
# Summary of the method: (§1)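 Viability measured as metabolically active cells via CellTiter-Glo luminescence following 48 hours of compound exposure, 11-point dilutions in confirmatory testing. 500-1,000 cells/well plated 5 hours before dosing; controls were DMSO and 2.3 µM bortezomib.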
# [2] = qHTS of pediatric cancer cell lines to identify multiple opportunities for drug repurposing: Primary screen for SK-N-MC cells (AID 1347093); conditions: SK-N-MC viability, CellTiter-Glo luminescence, 48 h; activity change, negative = cytotoxic: at 46 µM (top of the series);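 for activity change, negative = cytotoxic: plate controls were DMSO neutral control for no effect and bortezomib for full effect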
# Summary of the method: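 Metabolically active cells were quantified by ATP-dependent luminescence (CellTiter-Glo, 15 min at room temperature) following 48 h treatment. Cells had been plated at 500-1,000 per well and settled for 5 h beforehand.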
# [3] = qHTS of pediatric cancer cell lines to identify multiple opportunities for drug repurposing: Primary screen for BT-37 cells (AID 1347094); conditions: BT-37 viability, CellTiter-Glo luminescence, 48 h; series mostly up to 57.3 µM;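 for activity change, negative = cytotoxic: plate controls were DMSO for no effect and bortezomib for full effect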
# Summary of the method: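 Plated cells (500-1,000 per well, growth media) were allowed to settle for 5 hours, treated with compound dilutions for 48 hours, then lysed with CellTiter-Glo for 15 min at room temperature before luminescence reading.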
# [4] = qHTS of pediatric cancer cell lines to identify multiple opportunities for drug repurposing: Primary screen for SJ-GBM2 cells (AID 1347091); conditions: SJ-GBM2 viability, CellTiter-Glo luminescence, 48 h; series mostly up to 46 µM;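 for activity change, negative = cytotoxic: plate controls were DMSO neutral control for no effect and bortezomib for full effect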
# Summary of the method: as §1
# [5] = qHTS of pediatric cancer cell lines to identify multiple opportunities for drug repurposing: Primary screen for A673 cells (AID 1347092); conditions: A673 Ewing sarcoma viability, CellTiter-Glo ATP luminescence, 48 h; activity change, negative = cytotoxic: at 46 µM (top of the series); note: nearly all actives have a fitted effect of over 45% in size; for activity change, negative = cytotoxic: % is set by controls: 0 for no effect and ±100 for the full control effect
# Summary of the method: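 48 h compound exposure, A673, 500-1,000 cells/well, 37 degrees C/5% CO2. MIPE: 11-point, 0.78 nM-46 µM; NPC: 8-point, 0.59 nM-46 µM (final). Readout CellTiter-Glo luminescence after 15 min RT.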
# Potency is the fitted concentration of half-maximal effect; tags give direction and shape of the fitted curve.
smiles,measurement,setting,value
CN1[C@H]2CC[C@H]1CC(OC(=O)c1c[nH]c3ccccc13)C2 (stereo partly drawn),Potency,[1],"inconclusive: 29.6 µM [cytotoxic, single point]"
same,Potency,[2],"inconclusive: 33.2 µM [cytotoxic, single point]"
COc1cc(C)c(C=CC(C)=CC=CC(C)=CC(=O)O)c(C)c1C,Potency,[1],"inconclusive: 14.8 µM [cytotoxic, partial curve]"
same,Potency,[3],"inconclusive: 24.3 µM [cytotoxic, partial curve, poor fit]"
C[C@H]1C[C@@H]2[C@@H]([C@@H](O)C[C@@]3(C)[C@H]2CC[C@]3(O)C(=O)CO)[C@@]2(C)C=CC(=O)C=C12,Potency,[1],"inconclusive: 11.8 µM [cytotoxic, partial curve, poor fit]"
same,Potency,[2],"inconclusive: 37.2 µM [cytotoxic, single point]"
Nc1ncnc2c1ncn2[C@@H]1O[C@H](CO)C[C@@H]1O,Potency,[1],"inconclusive: 23.5 µM [cytotoxic, partial curve]"
same,Potency,[2],"inconclusive: 0.132 µM [cytotoxic, full curve, poor fit]"
Cc1cccc(-c2nn(C(=S)Nc3ccccc3)cc2-c2ccnc3ccccc23)n1,Potency,[4],"inconclusive: 3.72 µM [cytotoxic, partial curve]"
O=C(O)CCn1c2c(c3ccccc31)C[C@H](NS(=O)(=O)c1ccc(F)cc1)CC2,Potency,[1],inactive
same,Potency,[5],inactive
same,Potency,[3],inactive
COC1CCC(N(C(=O)C2CCC(C)CC2)c2cc(C3=CCCCC3)sc2C(=O)O)CC1 (stereo not drawn),Potency,[4],"inconclusive: 23.5 µM [cytotoxic, single point]"
C#C[C@]1(O)CC[C@H]2[C@H]3CCc4cc(OC)ccc4[C@H]3CC[C@@]21C,Potency,[1],"inconclusive: 23.5 µM [cytotoxic, single point]"
same,Potency,[2],active: 20.9 µM
Nc1ncnc2nc(-c3ccc(N4CCOCC4)nc3)cc(-c3cccc(Br)c3)c12,Potency,[1],"inconclusive: 18.7 µM [cytotoxic, single point]"
same,Potency,[5],"inconclusive: 37.2 µM [cytotoxic, single point]"
same,Potency,[3],"inconclusive: 19.3 µM [cytotoxic, partial curve]"
CCCNC(=O)Nc1ccc(Oc2ncnc3cc(OC)c(OC)cc23)cc1Cl,Potency,[4],"inconclusive: 26.4 µM [cytotoxic, single point]"
COc1ccc2cccc(CCNC(C)=O)c2c1,Potency,[4],inactive
CC1CCN(c2cc(N3CCN(C)CC3)ccc2NC(=O)c2cc(C#N)c[nH]2)CC1,Potency,[4],"inconclusive: 23.5 µM [cytotoxic, partial curve]"
CCCCCCCCCCCCCCCC(=O)OC[C@@H](NC(=O)C(Cl)Cl)[C@H](O)c1ccc([N+](=O)[O-])cc1,Potency,[4],inactive
NC(=O)c1ccc2[nH]ccc2c1,Potency,[1],inactive
same,Potency,[3],inactive
CO[C@H]1C=CO[C@@]2(C)Oc3c(C)c(O)c4c(O)c(c5c(c4c3C2=O)NC2(CCN(CC(C)C)CC2)N=5)=NC(=O)C(C)=CC=C[C@H](C)[C@H](O)[C@@H](C)[C@@H](O)[C@@H](C)[C@H](OC(C)=O)[C@H]1C,Potency,[1],inactive
same,Potency,[2],inactive
c1cnc2cc3c(cc2n1)C1CNCC3C1,Potency,[4],inactive
C[C@@]1(c2cc(-c3cncnc3)c(F)cc2F)CCSC(N)=N1,Potency,[1],"inconclusive: 23.5 µM [cytotoxic, single point]"
same,Potency,[2],active: 2.96 µM
Cc1nc2c([nH]1)CCN(C(=O)c1ccc(NC(=O)c3ccccc3-c3ccccc3)cc1)c1ccccc1-2,Potency,[1],inactive
same,Potency,[2],"inconclusive: 37.2 µM [cytotoxic, single point]"
Cc1coc2c1C(=O)C(=O)c1c-2ccc2c1CCCC2(C)C,Potency,[1],"inconclusive: 5.9 µM [cytotoxic, partial curve, poor fit]"
same,Potency,[5],"inconclusive: 23.5 µM [cytotoxic, partial curve]"
same,Potency,[2],active: 8.33 µM
COc1cc(C(C)C)c(Oc2cnc(NC(CO)CO)nc2N)cc1I,Potency,[1],"inconclusive: 0.935 µM [cytotoxic, full curve, poor fit]"
same,Potency,[2],active: 1.05 µM
NC1=N[C@@]2(c3cc(NC(=O)c4ccc(F)cn4)ccc3F)COC[C@@H]2CS1,Potency,[1],active: 4.69 µM
same,Potency,[3],active: 0.122 µM
CCOC(=O)C1=C(N)Oc2ccc(Br)cc2C1C(C#N)C(=O)OCC (stereo not drawn),Potency,[1],"inconclusive: 7.43 µM [cytotoxic, full curve]"
same,Potency,[5],"inconclusive: 23.5 µM [cytotoxic, single point]"
same,Potency,[2],"inconclusive: 1.87 µM [cytotoxic, full curve, poor fit]"
COc1cc([C@@H]2c3cc4c(cc3[C@H](O)[C@H]3COC(=O)[C@@H]23)OCO4)cc(OC)c1OC,Potency,[1],active: 0.118 µM
same,Potency,[3],"inconclusive: 0.385 µM [cytotoxic, full curve]"
O=C(O)c1ccc(-c2cc3cccnc3c(-c3ccc4nonc4c3)n2)cc1,Potency,[4],"inconclusive: 33.2 µM [cytotoxic, single point]"
CC(=O)O[C@]1(C(C)=O)CC[C@H]2[C@@H]3C=C(Cl)C4=CC(=O)[C@@H]5C[C@H]5[C@]4(C)[C@@H]3CC[C@@]21C,Potency,[1],active: 18.7 µM
same,Potency,[2],active: 7.43 µM
same,Potency,[3],"inconclusive: 1.93 µM [cytotoxic, full curve]"
CNC(=O)[C@H](Cc1ccccc1)NC(=O)[C@H](CC(C)C)[C@H](CSc1cccs1)C(=O)NO,Potency,[1],"inconclusive: 37.2 µM [cytotoxic, single point]"
same,Potency,[5],"inconclusive: 29.6 µM [cytotoxic, single point]"
same,Potency,[2],"inconclusive: 41.8 µM [cytotoxic, partial curve, poor fit]"
same,Potency,[3],"inconclusive: 12.2 µM [cytotoxic, partial curve]"
Nc1ncnc2ccccc12,Potency,[1],active: 18.7 µM
same,Potency,[2],"inconclusive: 29.6 µM [cytotoxic, single point]"
Nc1nc2[nH]cc(CCc3ccc(C(=O)N[C@@H](CCC(=O)O)C(=O)O)cc3)c2c(=O)[nH]1,Potency,[4],"inconclusive: 9.35 µM [cytotoxic, partial curve]"
Clc1cc(Cl)cc(CNc2ncncc2-c2ccc3c(c2)OCO3)c1,Potency,[1],"inconclusive: 23.5 µM [cytotoxic, partial curve]"
same,Potency,[3],"inconclusive: 43.2 µM [cytotoxic, single point]"
CN[C@@H](C)C(=O)N[C@H]1CCCC[C@H]2CC[C@@H](C(=O)N[C@@H](c3ccccc3)c3cn(CCCCc4ccc(CCCCn5cc([C@@H](NC(=O)[C@@H]6CC[C@@H]7CCCC[C@H](NC(=O)[C@H](C)NC)C(=O)N76)c6ccccc6)nn5)cc4)nn3)N2C1=O,Potency,[1],"inconclusive: 0.469 µM [cytotoxic, full curve]"
same,"activity change, negative = cytotoxic",[5],inconclusive: -65%
same,Potency,[3],"inconclusive: 15.3 µM [cytotoxic, partial curve]"
CN(C)Cc1cccc(N=C(c2ccccc2)c2c(O)[nH]c3cc(C(=O)N(C)C)ccc23)c1,Potency,[1],active: 2.96 µM
same,Potency,[5],"inconclusive: 0.296 µM [cytotoxic, partial curve, poor fit]"
same,Potency,[2],active: 14.8 µM
Cc1cccc(-c2[nH]ncc2-c2ccc3ncccc3n2)n1,Potency,[1],inactive
same,Potency,[5],inactive
same,Potency,[3],"inconclusive: 19.3 µM [cytotoxic, partial curve, poor fit]"
C#CCN[C@@H]1CCc2ccccc21,Potency,[1],inactive
same,Potency,[3],inactive
CCC=CC[C@H]1C(=O)CC[C@@H]1CC(=O)OC,Potency,[1],inactive
same,Potency,[2],inactive
CC1(C)CCC[C@@]2(C)[C@@H]1CC[C@@]1(C)OC(=O)C[C@H]21,Potency,[4],"inconclusive: 2.64 µM [cytotoxic, partial curve]"
Clc1ccc(-c2nc3sccn3c2C=NOCc2ccc(Cl)c(Cl)c2)cc1,Potency,[1],inactive
same,Potency,[5],"inconclusive: 11.8 µM [cytotoxic, partial curve]"
same,Potency,[2],"inconclusive: 0.0264 µM [cytotoxic, partial curve, poor fit]"
Nc1nc(-c2nn(Cc3ccccc3F)c3ncccc23)nc(N)c1N1CCOCC1,Potency,[1],inactive
same,"activity change, negative = cytotoxic",[5],inconclusive: -39.4% [cytotoxic]
same,Potency,[2],"inconclusive: 37.2 µM [cytotoxic, single point]"
CC(C)[C@H](N)C(=O)OCCOCn1cnc2c(=O)[nH]c(N)nc21,Potency,[4],"inconclusive: 18.7 µM [cytotoxic, partial curve]"
same,Potency,[2],"inconclusive: 0.0024 µM [cytotoxic, full curve, poor fit]"
CC(C)(C)[N+]([O-])=Cc1ccc(S(=O)(=O)O)cc1S(=O)(=O)O,Potency,[4],inactive
O=C(Nc1ccccc1Br)N[C@@H]1CCN(c2ccc(C(F)(F)F)cn2)C1,Potency,[4],"inconclusive: 13.2 µM [cytotoxic, partial curve]"
same,Potency,[2],"inconclusive: 37.2 µM [cytotoxic, single point]"
same,Potency,[3],"inconclusive: 38.5 µM [cytotoxic, single point]"
Cc1onc(-c2ccccc2)c1C(=O)N[C@@H]1C(=O)N2[C@@H](C(=O)O)C(C)(C)S[C@@H]12,Potency,[4],"inconclusive: 16.6 µM [cytotoxic, partial curve, poor fit]"
same,Potency,[5],inactive
c1ccc2c(Oc3nc(Nc4ccc(N5CCOCC5)cc4)c4ncn(C5CCCCC5)c4n3)cccc2c1,Potency,[4],"inconclusive: 16.6 µM [cytotoxic, partial curve]"
same,Potency,[5],"inconclusive: 23.5 µM [cytotoxic, partial curve, poor fit]"
CN1C(=O)C[C@H](C(=O)N[C@@H](Cc2cnc[nH]2)C(=O)N2CCC[C@@H]2C(N)=O)NC1=O,Potency,[4],inactive
same,Potency,[5],"inconclusive: 23.5 µM [cytotoxic, partial curve]"
same,Potency,[2],"inconclusive: 26.4 µM [cytotoxic, single point]"
same,Potency,[3],active: 24.3 µM
CNc1nc(Nc2ccc(C(=O)N3CCOCC3)cc2OC)ncc1Cl,Potency,[4],inactive
same,Potency,[2],"inconclusive: 37.2 µM [cytotoxic, single point]"
same,Potency,[3],inactive
